Laboratory results published in the supplement of paper PMC11876631.
± gives the standard deviation of the averaged measurements. Laboratory Escherichia coli strains with one amino-acid change in an essential protein, pooled on minimal glucose agar with carbenicillin or gentamicin at twice the control MIC (plus kanamycin and chloramphenicol for the plasmids), 48 h. Fold change of barcode share against drug-free plates; higher = less susceptible. Active = above 20 in both replicates (the paper's putatively resistant). '<' = one read or none on drug, '>' = one read or none on a drug-free plate. Shares are relative, so most strains fall below 1 when a few take over. Listed are strains with at least 15 reads on both drug-free plates, and hits; most hits rest on fewer reference reads. Replicate rank correlation about 0.5. Edits are read from barcodes.

Target: Escherichia coli (laboratory strain)
Test: barcode share on antibiotic plates over drug-free plates; higher = less susceptible
Settings: antibiotic: gentamicin; 2× MIC (MIC 0.45 µg/mL)
Experimental: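 A pool of E. coli strains, each edited to carry one amino-acid change in an essential protein, was grown for 48 h on minimal glucose agar with or without antibiotic; strain barcodes were sequenced; mean of two replicates.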

Protein | fold change of barcode share
lipA L76D (protein) MSKPIVMERGVKYRDADKMALIPVKNVATEREALLRKPEWMKIKLPADSTRIQGIKAAMRKNGLHSVCEEASCPNDAECFNHGTATFMILGAICTRRCPFCDVAHGRPVAPDANEPVKLAQTIADMALRYVVITSVDRDDLRDGGAQHFADCITAIREKSPQIKIETLVPDFRGRMDRALDILTATPPDVFNHNLENVPRIYRQVRPGADYNWSLKLLERFKEAHPEIPTKSGLMVGLGETNEEIIEVMRDLRRHGVTMLTLGQYLQPSRHHLPVQRYVSPDEFDEMKAEALAMGFTHAACGPFVRSSYHADLQAKGMEVK | > 851 [active]
lipA F87A (protein) MSKPIVMERGVKYRDADKMALIPVKNVATEREALLRKPEWMKIKLPADSTRIQGIKAAMRKNGLHSVCEEASCPNLAECFNHGTATAMILGAICTRRCPFCDVAHGRPVAPDANEPVKLAQTIADMALRYVVITSVDRDDLRDGGAQHFADCITAIREKSPQIKIETLVPDFRGRMDRALDILTATPPDVFNHNLENVPRIYRQVRPGADYNWSLKLLERFKEAHPEIPTKSGLMVGLGETNEEIIEVMRDLRRHGVTMLTLGQYLQPSRHHLPVQRYVSPDEFDEMKAEALAMGFTHAACGPFVRSSYHADLQAKGMEVK | > 196 [active]
lipA I123Q (protein) MSKPIVMERGVKYRDADKMALIPVKNVATEREALLRKPEWMKIKLPADSTRIQGIKAAMRKNGLHSVCEEASCPNLAECFNHGTATFMILGAICTRRCPFCDVAHGRPVAPDANEPVKLAQTQADMALRYVVITSVDRDDLRDGGAQHFADCITAIREKSPQIKIETLVPDFRGRMDRALDILTATPPDVFNHNLENVPRIYRQVRPGADYNWSLKLLERFKEAHPEIPTKSGLMVGLGETNEEIIEVMRDLRRHGVTMLTLGQYLQPSRHHLPVQRYVSPDEFDEMKAEALAMGFTHAACGPFVRSSYHADLQAKGMEVK | > 58.7 [active]
lipA I153W (protein) MSKPIVMERGVKYRDADKMALIPVKNVATEREALLRKPEWMKIKLPADSTRIQGIKAAMRKNGLHSVCEEASCPNLAECFNHGTATFMILGAICTRRCPFCDVAHGRPVAPDANEPVKLAQTIADMALRYVVITSVDRDDLRDGGAQHFADCWTAIREKSPQIKIETLVPDFRGRMDRALDILTATPPDVFNHNLENVPRIYRQVRPGADYNWSLKLLERFKEAHPEIPTKSGLMVGLGETNEEIIEVMRDLRRHGVTMLTLGQYLQPSRHHLPVQRYVSPDEFDEMKAEALAMGFTHAACGPFVRSSYHADLQAKGMEVK | > 79.8 [active]
lolB I139A (protein) MPLPDFRLIRLLPLAALVLTACSVTTPKGPGKSPDSPQWRQHQQDVRNLNQYQTRGAFAYISDQQKVYARFFWQQTGQDRYRLLLTNPLGSTELELNAQPGNVQLVDNKGQRYTADDAEEMIGKLTGMPIPLNSLRQWALGLPGDATDYKLDDQYRLSEITYSQNGKNWKVVYGGYDTKTQPAMPANMELTDGGQRIKLKMDNWIVK | < 0.0164
lolB I139Q (protein) MPLPDFRLIRLLPLAALVLTACSVTTPKGPGKSPDSPQWRQHQQDVRNLNQYQTRGAFAYISDQQKVYARFFWQQTGQDRYRLLLTNPLGSTELELNAQPGNVQLVDNKGQRYTADDAEEMIGKLTGMPIPLNSLRQWQLGLPGDATDYKLDDQYRLSEITYSQNGKNWKVVYGGYDTKTQPAMPANMELTDGGQRIKLKMDNWIVK | < 0.0129
lolB L140D (protein) MPLPDFRLIRLLPLAALVLTACSVTTPKGPGKSPDSPQWRQHQQDVRNLNQYQTRGAFAYISDQQKVYARFFWQQTGQDRYRLLLTNPLGSTELELNAQPGNVQLVDNKGQRYTADDAEEMIGKLTGMPIPLNSLRQWIDGLPGDATDYKLDDQYRLSEITYSQNGKNWKVVYGGYDTKTQPAMPANMELTDGGQRIKLKMDNWIVK | < 0.0221
lolB L190W (protein) MPLPDFRLIRLLPLAALVLTACSVTTPKGPGKSPDSPQWRQHQQDVRNLNQYQTRGAFAYISDQQKVYARFFWQQTGQDRYRLLLTNPLGSTELELNAQPGNVQLVDNKGQRYTADDAEEMIGKLTGMPIPLNSLRQWILGLPGDATDYKLDDQYRLSEITYSQNGKNWKVVYGGYDTKTQPAMPANMEWTDGGQRIKLKMDNWIVK | < 0.0206
lolC M63Q (protein) MYQPVALFIGLRYMRGRAADRFGRFVSWLSTIGITLGVMALVTVLSVMNGFERELQNNILGLQPQAILSSEHGSLNPQQLPETAVKLDGVNRVAPITTGDVVLQSARSVAVGVMLGIDPAQKDPLTPYLVNVKQTDLEPGKYNVILGEQLASQLGVNRGDQIRVMVPSASQFTPMGRIPSQRLFNVIGTFAANSEVDGYEMLVNIEDASRLMRYPAGNITGWRLWLDEPLKVDSLSQQKLPEGSKWQDWRDRKGELFQAVRMEKNMMGLLLSLIVAVAAFNIITSLGLMVMEKQGEVAILQTQGLTPRQIMMVFMVQGASAGIIGAILGAALGALLASQLNNLMPIIGVLLDGAALPVAIEPLQVIVIALVAMAIALLSTLYPSWRAAATQPAEALRYE | < 0.0106
lolC I145D (protein) MYQPVALFIGLRYMRGRAADRFGRFVSWLSTIGITLGVMALVTVLSVMNGFERELQNNILGLMPQAILSSEHGSLNPQQLPETAVKLDGVNRVAPITTGDVVLQSARSVAVGVMLGIDPAQKDPLTPYLVNVKQTDLEPGKYNVDLGEQLASQLGVNRGDQIRVMVPSASQFTPMGRIPSQRLFNVIGTFAANSEVDGYEMLVNIEDASRLMRYPAGNITGWRLWLDEPLKVDSLSQQKLPEGSKWQDWRDRKGELFQAVRMEKNMMGLLLSLIVAVAAFNIITSLGLMVMEKQGEVAILQTQGLTPRQIMMVFMVQGASAGIIGAILGAALGALLASQLNNLMPIIGVLLDGAALPVAIEPLQVIVIALVAMAIALLSTLYPSWRAAATQPAEALRYE | < 0.014
lolC M165D (protein) MYQPVALFIGLRYMRGRAADRFGRFVSWLSTIGITLGVMALVTVLSVMNGFERELQNNILGLMPQAILSSEHGSLNPQQLPETAVKLDGVNRVAPITTGDVVLQSARSVAVGVMLGIDPAQKDPLTPYLVNVKQTDLEPGKYNVILGEQLASQLGVNRGDQIRVDVPSASQFTPMGRIPSQRLFNVIGTFAANSEVDGYEMLVNIEDASRLMRYPAGNITGWRLWLDEPLKVDSLSQQKLPEGSKWQDWRDRKGELFQAVRMEKNMMGLLLSLIVAVAAFNIITSLGLMVMEKQGEVAILQTQGLTPRQIMMVFMVQGASAGIIGAILGAALGALLASQLNNLMPIIGVLLDGAALPVAIEPLQVIVIALVAMAIALLSTLYPSWRAAATQPAEALRYE | < 0.0175
lolD I40Q (protein) MNKILLQCDNLCKRYQEGSVQTDVLHNVSFSVGEGEMMAQVGSSGSGKSTLLHLLGGLDTPTSGDVIFNGQPMSKLSSAAKAELRNQKLGFIYQFHHLLPDFTALENVAMPLLIGKKKPAEINSRALEMLKAVGLDHRANHRPSELSGGERQRVAIARALVNNPRLVLADEPTGNLDARNADSIFQLLGELNRLQGTAFLVVTHDLQLAKRMSRQLEMRDGRLTAELSLMGAE | < 0.0181
lolE L41Q (protein) MAMPLSLLIGLRFSRGRRRGGMVSLISVISTIGIALGVAVQIVGLSAMNGFERELNNRILAVVPHGEIEAVDQPWTNWQEALDHVQKVPGIAAAAPYINFTGLVESGANLRAIQVKGVNPQQEQRLSALPSFVQGDAWRNFKAGEQQIIIGKGVADALKVKQGDWVSIMIPNSNPEHKLMQPKRVRLHVAGILQLSGQLDHSFAMIPLADAQQYLDMGSSVSGIALKMTDVFNANKLVRDAGEVTNSYVYIKSWIGTYGYMYRDIQMIRAIMYLAMVLVIGVACFNIVSTLVMAVKDKSGDIAVLRTLGAKDGLIRAIFVWYGLLAGLFGSLCGVIIGVVVSLQLTPIIEWIEKLIGHQFLSSDIYFIDFLPSELHWLDVFYVLVTALLLSLLASWYPARRASNIDPARVLSGQ | < 0.0113
lptA F95A (protein) MKFKTNKLSLNLVLASSLLAASIPAFAVTGDTDQPIHIESDQQSLDMQGNVVTFTGNVIVTQGTIKINADKVVVTRPGGEQGKEVIDGYGKPATAYQMQDNGKPVEGHASQMHYELAKDFVVLTGNAYLQQVDSNIKGDKITYLVKEQKMQAFSDKGKRVTTVLVPSQLQDKNNKGQTPAQKKGN | 0.00849 ± 0.0061
lptA F95W (protein) MKFKTNKLSLNLVLASSLLAASIPAFAVTGDTDQPIHIESDQQSLDMQGNVVTFTGNVIVTQGTIKINADKVVVTRPGGEQGKEVIDGYGKPATWYQMQDNGKPVEGHASQMHYELAKDFVVLTGNAYLQQVDSNIKGDKITYLVKEQKMQAFSDKGKRVTTVLVPSQLQDKNNKGQTPAQKKGN | 0.00781 ± 0.0047
lptA F95D (protein) MKFKTNKLSLNLVLASSLLAASIPAFAVTGDTDQPIHIESDQQSLDMQGNVVTFTGNVIVTQGTIKINADKVVVTRPGGEQGKEVIDGYGKPATDYQMQDNGKPVEGHASQMHYELAKDFVVLTGNAYLQQVDSNIKGDKITYLVKEQKMQAFSDKGKRVTTVLVPSQLQDKNNKGQTPAQKKGN | < 0.0226
